From PubChem BioAssay (NCATS) come the findings set out here.

Structures are written as SMILES. Inconclusive results are not listed. The call rests on the fitted dose curve; in most records, active means well fitted curve in the direction sought with a large enough effect; inconclusive means small, poorly fitted or top-dose-only effect, or another doubt; inactive means no such curve, though single readings can be large; an effect the other way counts as inactive or inconclusive. More than one record can exist for a structure, and the calls need not agree. Some entries of the source have several records that differ or are many. They are shown here; other results are not. An entry can have further records. The values listed for one entry are repeats (runs, samples, wells, individuals or studies). Records carry a tag for their origin. The letters are not those of the source and start again with each entry. Counts like (3×) say how often a value occurs here.

The nature of assay [1]: qHTS of pediatric cancer cell lines to identify multiple opportunities for drug repurposing: Primary screen for DAOY cells (AID 1347090). Further: nearly all actives have a fitted effect of over 55% in size. The essentials:
(§1)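 Viability measured as metabolically active cells via CellTiter-Glo luminescence following 48 hours of compound exposure, 11-point dilutions in confirmatory testing. 500-1,000 cells/well plated 5 hours before dosing; controls were DMSO and 2.3 µM bortezomib.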
(In general: Quantitative high-throughput screening tests each substance at several concentrations.)

A short description of assay [2]: qHTS of pediatric cancer cell lines to identify multiple opportunities for drug repurposing: Primary screen for NB1643 cells (AID 1347099). Further: nearly all actives have a fitted effect of over 50% in size.
A short description of assay [3]: qHTS of pediatric cancer cell lines to identify multiple opportunities for drug repurposing: Primary screen for MG 63 (6-TG R) cells (AID 1347105). Further: nearly all actives have a fitted effect of over 50% in size. The essentials:
(§2)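 Following a 5-hour attachment period, cells at 500-1,000/well received compounds and were cultured for 48 hours. CellTiter-Glo was added and luminescence read to estimate viable, metabolically active cells.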

Assay [4] in a line: qHTS of pediatric cancer cell lines to identify multiple opportunities for drug repurposing: Primary screen for NB-EBc1 cells (AID 1347095).
Assay [5] is described as follows: qHTS of pediatric cancer cell lines to identify multiple opportunities for drug repurposing: Primary screen for TC32 cells (AID 1347089). Further: nearly all actives have a fitted effect of over 60% in size. The essentials:
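Luminescent ATP read-out (CellTiter-Glo) of metabolically active TC32 cells after 48 h exposure. Concentration-response curves came from 11-point (MIPE, 0.78 nM–46 µM) or 8-point (NPC, 0.59 nM–46 µM) primary titrations; follow-up used 11 points.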

Assay [6] in a line: qHTS of pediatric cancer cell lines to identify multiple opportunities for drug repurposing: Primary screen for SK-N-MC cells (AID 1347093).
Assay [7] in a line: qHTS of pediatric cancer cell lines to identify multiple opportunities for drug repurposing: Primary screen for A673 cells (AID 1347092). Further: nearly all actives have a fitted effect of over 45% in size. The essentials: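 Cell viability of A673 measured by CellTiter-Glo ATP luminescence after 48 hours compound exposure. Dilution series spanned 0.78 nM to 46 µM (MIPE, 11-point) or 0.59 nM to 46 µM (NPC, 8-point); bortezomib 2.3 uM positive control.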

The test system of assay [8] is Zika virus NS2B-NS3 protease. Briefly: Primary screen GU AMC qHTS for Zika virus inhibitors (AID 1347154). Further: nearly all actives have a fitted effect of over 70% in size. The essentials:
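Unlinked Zika NS2B hydrophilic domain–NS3 protease complex at 25 nM in 10 mM Tris-HCl pH 8.0, 0.01% Tween 20, with an AMC peptide substrate. Fluorescence change (340/450 nm) over 15 min at room temperature, normalized to controls, fitted to 4-parameter Hill.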

Assay [9] in a line: qHTS of pediatric cancer cell lines to identify multiple opportunities for drug repurposing: Primary screen for Rh30 cells (AID 1347107). Further: nearly all actives have a fitted effect of over 75% in size. Put shortly:
(§3)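 Viability after 48 h compound treatment at 37C, 500-1,000 cells/well, read as ATP luminescence with CellTiter-Glo. Primary screens used 11-point (MIPE, 0.78 nM-46 µM) or 8-point (NPC, 0.59 nM-46 µM) final concentrations; follow-up screens used 11-point dilutions.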

Assay [10] is described as follows: qHTS of pediatric cancer cell lines to identify multiple opportunities for drug repurposing: Primary screen for Rh41 cells (AID 1347108). Further: nearly all actives have a fitted effect of over 70% in size. Put shortly: as §2
The nature of assay [11]: qHTS of pediatric cancer cell lines to identify multiple opportunities for drug repurposing: Primary screen for SJ-GBM2 cells (AID 1347091). The essentials: as §1
Assay [12] is described as follows: qHTS of pediatric cancer cell lines to identify multiple opportunities for drug repurposing: Primary screen for LAN-5 cells (AID 1347100). Put shortly:
as §3

Assay [13] can be described thus: qHTS of pediatric cancer cell lines to identify multiple opportunities for drug repurposing: Primary screen for SK-N-SH cells (AID 1347098). Further: nearly all actives have a fitted effect of over 65% in size. The essentials: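 Cells (500-1,000/well) rested 5 h, then received compounds for 48 h; metabolically active cells were measured by CellTiter-Glo luminescence. Final concentrations spanned up to 46 µM (MIPE, 11-point) or 0.59 nM-46 µM (NPC, 8-point) in primary screens, 11-point in follow-ups.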

Assay [14] is described as follows: qHTS of pediatric cancer cell lines to identify multiple opportunities for drug repurposing: Primary screen for Saos-2 cells (AID 1347097). Further: nearly all actives have a fitted effect of over 40% in size. Put shortly: as §2
Assay [15] in a line: qHTS of pediatric cancer cell lines to identify multiple opportunities for drug repurposing: Primary screen for RD cells (AID 1347104). Further: nearly all actives have a fitted effect of over 55% in size. Put shortly: as §2
For assay [16], the system named is Zika virus NS2B-NS3 protease (linked construct). Nature of the assay: Confirmatory screen NINDS AMC qHTS for Zika virus inhibitors (AID 1347152). Further: nearly all actives have a fitted effect of over 70% in size. Put shortly:
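IC50s from 4-parameter Hill fits of percent inhibition, based on AMC fluorescence gain (340/450 nm) over 15 min with 10 microM Bz-Nle-KRR-AMC. Enzyme: 1 nM linked NS2B-NS3 in Tris-HCl pH 8.0; 15-min compound preincubation.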

Assay [17] has as its system Zika virus NS2B-NS3 protease (unlinked complex). Nature of the assay: Confirmatory screen GU AMC qHTS for Zika virus inhibitors (AID 1347153). Further: nearly all actives have a fitted effect of over 70% in size.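 On Potency: enzyme at 25 nM with substrate at 10 µM below its Km of 18.3 µM.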 Put shortly:
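Compounds were preincubated 15 min at room temperature with 25 nM noncovalent NS2B-NS3 protease at pH 8.0; AMC substrate added at 10 microM and 15-min fluorescence gain (340/450 nm) converted to percent inhibition, fitted 4-parameter.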

The nature of assay [18]: Confirmatory screen NINDS Rhodamine qHTS for Zika virus inhibitors (AID 1347161). Further: nearly all actives have a fitted effect of over 60% in size. The essentials:
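Rhodamine110-peptide cleavage (1.5 µM substrate) by 25 nM linked NS2B-NS3 enzyme at pH 8.0 (Tris, Tween 20), after 15 min RT preincubation with compounds; 15-min fluorescence change normalized to controls and Hill-fitted.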

A short description of assay [19]: Tertiary RLuc qRT-PCR qHTS assay for Zika virus inhibitors (AID 1347169). Further: nearly all actives have a fitted effect of over 55% in size. Put shortly:
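Orthogonal cell-based readout: luminescence measured 1-1.5 hrs after adding live-cell Renilla substrate to Vero cells that had been infected with ZIKV-RLuc (MOI 1-2) post-compound, incubated 48-72 hrs at 37 degrees C.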
(In qPCR the cycle at which signal appears reflects the starting amount.)
Potency means the concentration at half of the fitted maximal effect.

On to `Cc1ccc(-n2nc(C(C)(C)C)cc2NC(=O)Nc2ccc(OCCN3CCOCC3)c3ccccc23)cc1`, for which the Potency entry in assay [1] was “active: 5.9 µM [sample A] and inactive [sample B]”; in [2], “active: 2.96 µM [sample A] and inactive [sample B]”; in [3] it was “active: 18.7 µM [sample A] and inactive [sample B]”.

Take `O=NN(CCCl)C(=O)NCCCl`: the Potency result in assay [4] was “inactive [sample A] and active: 18.7 µM [sample B]”.

`Cc1[nH]c(=O)c(C#N)cc1-c1ccncc1`: the Potency result in assay [5] was “active: 6.58 µM [sample A] and inactive [sample B] and inactive [sample C]”; in assay [6], “active: 4.69 µM [sample A] and inactive [sample B] and inactive [sample C]”; in assay [2], “active: 16.6 µM [sample A] and inactive [sample B] and inactive [sample C]”.

Regarding `C1COC(NC(C2CC2)C2CC2)=N1`, the Potency result in [6] is “active: 23.5 µM [sample A] and inactive [sample B]”.

On to `COc1ccc([C@@H]2CC(=O)c3c(O)cc(O[C@@H]4O[C@H](CO[C@@H]5O[C@@H](C)[C@H](O)[C@@H](O)[C@@H]5O)[C@@H](O)[C@H](O)[C@@H]4O)cc3O2)cc1O`, for which the Potency entry in assay [7] is “inactive [sample A] and active: 9.35 µM [sample B]”.

Take `Cc1oncc1C(=O)Nc1ccc(C(F)(F)F)cc1`: the Potency result in assay [7] was “inactive [sample A] and active: 18.7 µM [sample B]”.

`OC(CN1CCC(Cc2ccc(F)cc2)CC1)c1ccc(Cl)cc1` (stereo not given): the Potency entry was “active: 20.9 µM [sample A] and inactive [sample B]” in assay [6]; “inactive [sample A] and active: 16.8 µM [sample B]” in assay [4].

Turning to `CCCCNc1cc(C(=O)O)cc(S(N)(=O)=O)c1Oc1ccccc1`, the Potency result in assay [8] was “inactive [sample A] and active: 27.1 µM [sample B]”.

With `CC(=O)Oc1ccccc1C(=O)O`, the Potency result in assay [1] was “inactive [sample A] and active: 9.35 µM [sample B]”; in assay [9], “inactive [sample A] and active: 11.8 µM [sample B]”; in assay [10] it was “inactive [sample A] and active: 23.5 µM [sample B]”.

With `Cc1cc2c(C(C)C)c(O)c(O)c(C=O)c2c(O)c1-c1c(C)cc2c(C(C)C)c(O)c(O)c(C=O)c2c1O`, the Potency entry in assay [8] is “inactive [sample A] and active: 6.31 µM [sample B]”.

`O=c1[nH]cnc2[nH]ncc12`: the Potency result in assay [6] is “inactive [sample A] and active: 18.7 µM [sample B]”.

As for `C#Cc1cccc(Nc2ncnc3cc(OCCOC)c(OCCOC)cc23)c1`, the Potency entry in assay [11] is “active: 18.7 µM [sample A] and inactive [sample B]”; in assay [7], “active: 935 nM [sample A] and inactive [sample B]”; in [4], “active: 2.96 µM [sample A] and inactive [sample B]”; in assay [12], “active: 7.43 µM [sample A] and inactive [sample B]”.

Consider `NC(N)=NC(=O)c1nc(Cl)c(N)nc1N`, for which the Potency result is “active: 18.7 µM [sample A] and inactive [sample B]” in assay [1]; “active: 9.35 µM [sample A] and inactive [sample B]” in assay [7]; “active: 1.48 µM [sample A] and inactive [sample B]” in assay [6]; “active: 30.4 µM [sample A] and inactive [sample B]” in [13]; “active: 14.8 µM [sample A] and inactive [sample B]” in assay [2]; “inactive [sample A] and active: 18.9 µM [sample B] and active: 31.6 µM [sample C]” in assay [8].

Regarding `CCOC(=O)C1=C[C@]2(CC)CCCN3CCc4c(n1c1ccccc41)[C@@H]32`, the Potency entry in [7] is “active: 18.7 µM [sample A] and inactive [sample B]”; in assay [14] it was “active: 37.2 µM [sample A] and inactive [sample B]”; in assay [13], “active: 24.1 µM [sample A] and inactive [sample B]”; in [12] it was “active: 23.5 µM [sample A] and inactive [sample B]”; in assay [15] it was “active: 29.6 µM [sample A] and inactive [sample B]”; in assay [3], “active: 23.5 µM [sample A] and inactive [sample B]”.

With `Nc1nc2c(ncn2COCCO)c(=O)[nH]1`, the Potency entry in assay [6] is “inactive [sample A] and active: 5.26 µM [sample B]”.

Regarding `N=c1nc(N2CCCCC2)cc(N)n1O`, the Potency result in assay [7] was “active: 18.7 µM [sample A] and inactive [sample B]”; in assay [6] it was “active: 33.2 µM [sample A] and inactive [sample B]”; in assay [15], “active: 33.2 µM [sample A] and inactive [sample B]”; in assay [8] it was “active: 34.1 µM and inactive (3×) [separate samples]”.

For the compound `O=C1CCc2cc(OCCCCc3nnnn3C3CCCCC3)ccc2N1`, the Potency entry is “inactive [sample A] and active: 29.6 µM [sample B]” in [6]; “inactive [sample A] and active: 16.6 µM [sample B]” in assay [2].

Consider `CCOC(=O)N1CCC(=C2c3ccc(Cl)cc3CCc3cccnc32)CC1`, for which the Potency result in assay [14] was “inactive [sample A] and active: 26.6 µM [sample B]”; in [2], “inactive [sample A] and active: 23.7 µM [sample B]”.

For the compound `CC(C)(Sc1ccc(CCN(CCCCC2CCCCC2)C(=O)NC2CCCCC2)cc1)C(=O)O`, the Potency entry in assay [16] was “inactive [sample A] and active: 13.9 µM [sample B]”; in [17], “inactive [sample A] and active: 13.9 µM [sample B]”; in [18], “inactive [sample A] and active: 2.48 µM [sample B]”; in assay [19], “inactive [sample A] and active: 14.7 µM [sample B]”.

As to `COc1ccc2nc(S(=O)Cc3ncc(C)c(OC)c3C)[nH]c2c1` (stereo not given), the Potency entry in assay [7] is “inactive [sample A] and active: 18.7 µM [sample B]”; in [6] it was “inactive [sample A] and active: 20.9 µM [sample B]”; in assay [2] it was “inactive [sample A] and active: 23.5 µM [sample B]”.
